Results on 84 compounds are retold here after PubChem BioAssay AID1645887 (National Center for Advancing Translational Sciences (NCATS), 2021).

Several values for one entry are separate records, joined by “and”; a condition that tells them apart may be missing. Identical values can stand only once. The campaign covered roughly 16,000 compounds. About 40 (0.2%) were called active. Inconclusive results (about 1%) are left out. Calls follow the shape of the dose curve; as a rule, active = well fitted activation curve with a large enough effect; inconclusive = small, poorly fitted or top-dose-only effect, or another doubt; inactive = no such curve, though single readings can be large or run the other way. This is one part of the list.
% is scaled to controls: 0 for no effect and ±100 for the full control effect; potency is read from the fitted curve at half-maximal effect.

This assay deals with Rap guanine nucleotide exchange factor 4 (Homo sapiens) (UniProt Q8WZA2). The assay can be described thus: Validation qHTS for agonist of cAMP-regulated guanine nucleotide exchange factor 4 (EPAC2).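 As to activation: exchange makes BODIPY-GDP fluorescence drop when released from Rap1B; series mostly up to about 150 µM.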 To be noted: EPAC2 Rap1B BODIPY-GDP exchange, fluorescence; activation: stronger effect = higher value. Summed up: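 Fluorescent exchange assay: 100 nM EPAC2 with 250 nM RAP1B-BODIPY-GDP and 50 uM GDP; compound added, 5 min at room temperature, then read (ex 480/em 540 nm) every 5 min for 30 min. Normalized to 6.5 mM cAMP agonist control.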
Sequence of UniProt Q8WZA2 (Q8WZA2 whole entry, looked up): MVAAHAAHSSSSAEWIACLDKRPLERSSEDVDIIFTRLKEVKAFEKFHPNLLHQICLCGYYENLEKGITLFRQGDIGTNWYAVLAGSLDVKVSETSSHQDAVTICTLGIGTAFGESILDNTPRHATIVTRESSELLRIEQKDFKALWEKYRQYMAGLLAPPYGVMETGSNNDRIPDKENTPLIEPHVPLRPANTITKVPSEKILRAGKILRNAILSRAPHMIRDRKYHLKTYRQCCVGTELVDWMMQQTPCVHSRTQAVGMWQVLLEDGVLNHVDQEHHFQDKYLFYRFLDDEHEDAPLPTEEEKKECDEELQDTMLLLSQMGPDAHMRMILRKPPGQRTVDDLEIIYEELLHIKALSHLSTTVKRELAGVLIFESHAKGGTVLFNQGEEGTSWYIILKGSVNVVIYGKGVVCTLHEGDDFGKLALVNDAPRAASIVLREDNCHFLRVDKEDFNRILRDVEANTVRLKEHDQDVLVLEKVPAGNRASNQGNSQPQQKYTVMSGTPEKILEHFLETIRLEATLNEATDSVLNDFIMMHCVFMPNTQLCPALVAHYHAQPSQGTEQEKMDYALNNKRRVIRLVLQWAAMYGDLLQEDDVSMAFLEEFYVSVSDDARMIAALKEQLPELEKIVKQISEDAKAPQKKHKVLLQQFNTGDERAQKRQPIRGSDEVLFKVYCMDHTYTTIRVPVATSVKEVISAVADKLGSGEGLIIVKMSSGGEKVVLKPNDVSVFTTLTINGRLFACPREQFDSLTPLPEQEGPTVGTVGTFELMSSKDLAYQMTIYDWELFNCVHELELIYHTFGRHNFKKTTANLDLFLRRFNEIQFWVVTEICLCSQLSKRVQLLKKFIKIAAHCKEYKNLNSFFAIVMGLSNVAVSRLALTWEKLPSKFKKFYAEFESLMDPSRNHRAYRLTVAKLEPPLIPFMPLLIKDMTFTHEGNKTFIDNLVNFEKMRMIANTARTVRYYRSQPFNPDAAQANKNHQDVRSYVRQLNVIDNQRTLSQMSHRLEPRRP
For orientation: Quantitative high-throughput screening tests each substance at several concentrations.
Consider `CCOC(=O)C(C)(C)Oc1ccc(Cl)cc1`, for which the activation was inactive: -10.6% and inactive: -2.17% and inactive: -40.2%.

As to `COc1ccc(OC)c(C(=O)N(Cc2cc3cccc(C)c3nc2N2CCC(O)CC2)C2CC2)c1`, the activation is inactive: 0.8%. On the same count and under the same terms, the result for `c1cnc2c(c1)ccc1cccnc12` reads inactive: -12.4%; that for `Cc1noc(C)c1-c1nc(Nc2ccc(F)cc2)c2ccccc2n1`, inactive: -20.8%; that for `CN1CCCC(CC2c3ccccc3Sc3ccccc32)C1` (centres undefined), inactive: -23.6%. The same measure, in the same setting: to `Cc1nc2cnc(N3CCN(C)CC3)nc2n(CCC#N)c1=O` belongs inactive: 2.78%; to `COc1ccccc1N1CCN(CC(O)COc2cccc3ccccc23)CC1` (centres undefined), inactive: 1.07% and inactive: -57%.

Consider `CCCN(CCC)C[C@@H]1CCCCN1CCNC(=O)N1c2ccccc2C(=O)Nc2cccnc21`, for which the activation is inactive: -19.5%.

Take `CCN1C(=O)NC(c2ccccc2)C1=O` (centres undefined): the activation was inactive: -11.3%.

Turning to `COc1ccc(CN2CCOc3ccc(CN4CCN(CCO)CC4)cc3C2)c2ccccc12`, the activation is inactive: -3.68%. The same measure, in the same setting: the result for `COc1ccccc1CN1CCC2(CC1)CCN(C(=O)c1cccn1C)CC2` reads inactive: -1.25%. On the same count and under the same terms, the result for `COc1cccc(-c2cncnc2NCCN2CCOCC2)c1` reads inactive: -4.35%; that for `CCCCCCCCCCCCOS(=O)(=O)O`, inactive: -36.3%.

Consider `COc1ccc(CN2CC[C@H]3C=CC[C@@H](C(=O)Nc4ccccc4)[C@H]3C2=O)cc1OC`, for which the activation was inactive: -4.97% and inactive: -9.67%. With `Cc1cnc(C)c(-c2cccc3c2OC(CNC(=O)/C=C/c2ccc(F)c(F)c2)C3)n1` (centres undefined), the activation was inactive: -22.3%.

`CCCN(CCC)C(=O)C(CCC(=O)O)NC(=O)c1ccccc1` (centres undefined): the activation is inactive: -9.04% and inactive: -14.5% and inactive: -8.28%. In the case of `O=c1cnc2cnc(Oc3cccc(Cl)c3)nc2n1C[C@H]1CCCO1`, the activation was inactive: 6.37%.

Turning to `CCCC[n+]1c(C)ccc2ccccc21`, the activation is inactive: -26.2%.

Take `COc1ccc(CN2CC[C@H]3C=CC[C@@H](C(=O)Nc4ccc(Cl)cc4Cl)[C@H]3C2=O)cc1OC`: the activation is inactive: -10.4%. For `COc1ccc2c(c1)N(C[C@H](C)CN(C)C)c1ccccc1S2`, the activation is inactive: 0.214%.

With `CCOC(=O)C1CCCN(C(=O)c2cnn(-c3ncc4c(n3)-c3ccccc3CC4)c2C)C1` (centres undefined), the activation is inactive: -8.12%. Same read-out and setting: the result for `COC(=O)c1ccccc1O` reads inactive: -17.4%; that for `Cc1cnc(C)c(-c2cc(F)c3c(c2)CC(CNC(=O)c2cccc(Cn4cccn4)c2)O3)n1` (centres undefined), inactive: -11.3%; that for `CC(COc1ccccc1)NN` (centres undefined), inactive: -0.165%. Still for that read-out and setting: the result for `N#Cc1ccc(/C=C2/C=Cc3ccccc32)cc1` reads inactive: -21.8%.

As to `COc1ccc(CN2CCCC(n3cc(C(=O)NC4CCCC4)nn3)C2)c2ccccc12` (centres undefined), the activation is inactive: 9.62%. On the same count and under the same terms, the result for `Cc1c(C(=O)N2CC3CCC2C3)sc2ncnc(NCCc3c[nH]c4ccccc34)c12` (centres undefined) reads inactive: -17%. Same read-out and setting: to `COC(=O)N1CCC2(CC1)CN(C(=O)Nc1ccc(OC)cc1)C2` belongs inactive: -17.3%; to `O=Cc1ccnc2ccccc12`, inactive: -11.8%. For `O=C(NC1CC1)[C@@H]1C[C@H](Sc2nc3ccccc3[nH]2)CN1CC1CCCCC1`, the activation was inactive: -2.88%. Same read-out and setting: to `CC[C@H](CC[C@@H](C)[C@H]1CC[C@H]2[C@@H]3CC=C4C[C@@H](O)CC[C@]4(C)[C@H]3CC[C@]12C)C(C)C` belongs inactive: -18.6%; to `Cc1cccc(CNc2cc(-c3cccc(NS(C)(=O)=O)c3)ncn2)c1`, inactive: -16%; to `N#CC(c1ccc(Cl)cc1)c1c(Cl)cc(-n2ncc(=O)[nH]c2=O)cc1Cl` (centres undefined), inactive: -19.2%. Regarding `O=c1ccc2ccc(O)c(O)c2o1`, the activation was inactive: -19.2%.

On to `O=S(=O)(NCc1ccccc1Br)c1ccccc1Br`, for which the activation was inactive: -19.2%. Regarding `COc1ccccc1-c1ccc2ncnc(N(C)C)c2c1`, the activation is inactive: -13.8%. The same measure, in the same setting: the result for `OC1(c2cccnc2)CCN(Cc2ccc3c(c2)CN(Cc2ccc(F)c(F)c2)CCO3)CC1` reads inactive: -10.7%. On to `CC(=O)NCCc1c[nH]c2ccc(O)cc12`, for which the activation is inactive: -9.2% and inactive: -3.51% and inactive: -13.6%. The same measure, in the same setting: the result for `COc1cc(OC)c(C(=O)CCCN2CCCC2)c(OC)c1` reads inactive: 9.91%. `CCCc1nc2cccnc2n1C1CCN(C(=O)Cn2nccc2C)CC1`: the activation was inactive: -0.685%. The same measure, in the same setting: the result for `O=C(C[n+]1cccc2cccc(O)c21)c1ccccc1` reads inactive: -0.768%; that for `O=C1[C@H](Cc2ccccc2)NC/C=C\C[C@H](c2ccco2)N1Cc1ccccc1`, inactive: -7.31%.

On to `CN1CCN(c2ncc3nc(-c4cccs4)c(=O)n(CCc4ccccc4)c3n2)CC1`, for which the activation is inactive: -28%. Still for that read-out and setting: to `O=C(NCC1Cc2cccc(-c3ncccn3)c2O1)C1CCCO1` (centres undefined) belongs inactive: -1.15%. Consider `C/C1=C2N=C(/C=C3N=C(/C(C)=C4\[N-][C@@](C)([C@@H]5N=C1[C@](C)(CCC(=O)NCC(C)OP(=O)(O)O[C@H]1[C@@H](O)[C@@H](n6cnc7cc(C)c(C)cc76)O[C@@H]1CO)[C@H]5CC(N)=O)[C@@](C)(CC(N)=O)[C@@H]4CCC(N)=O)[C@@](C)(CC(N)=O)[C@@H]\3CCC(N)=O)C(C)(C)[C@@H]/2CCC(N)=O.CC(=O)O.[Co]` (some centres undefined), for which the Potency is active: 56.2 µM. Turning to `O=C(/C=C/c1ccc(O)c(O)c1)O[C@@H]1C[C@@](O)(C(=O)O)C[C@H](O)[C@@H]1O`, the activation was inactive: -1.23%.

Regarding `CCC1C(=O)NCCN1Cc1ccc2c(c1)CN(Cc1ccc(OC)c(OC)c1)CCO2` (centres undefined), the activation is inactive: -5.29%. Same read-out and setting: the result for `O=S(=O)(c1cccc2c(I)cccc12)N1CCCNCC1` reads inactive: -8.52% and inactive: -2.56%. Same read-out and setting: to `CNC(=O)OCc1cccc(COC(=O)NC)n1` belongs inactive: -0.137%. Still for that read-out and setting: the result for `N#C/C(=C\c1ccc(O)c(O)c1)C(N)=O` reads inactive: -8.88% and inactive: -6.66%.

With `CC(C)(C)C(=O)OCOP(=O)(COCCn1cnc2c(N)ncnc21)OCOC(=O)C(C)(C)C`, the activation was inactive: 6.75%. `c1ccc(CNc2ncncc2-c2ccc3c(c2)OCO3)cc1`: the activation is inactive: -13.8%.

`CS(=O)(=O)CCNCc1ccc(-c2ccc3ncnc(Nc4ccc(OCc5cccc(F)c5)c(Cl)c4)c3c2)o1`: the activation was inactive: 13.8%.

For `O=C(Nc1ccc(O)cc1)c1ccccc1O`, the activation was inactive: 5.21%. On to `Cc1noc(C)c1C(=O)N1CCC[C@@]2(CCN(C(=O)NC(C)C)C2)C1`, for which the activation is inactive: -14%. Same read-out and setting: the result for `Cn1c(=O)c(-c2ccc(Cl)cc2)nc2cncnc21` reads inactive: -2.55%.

For `COc1cc(-c2coc3cc(OC)c(OC)c(OC)c3c2=O)cc(OC)c1OC`, the activation is inactive: -2.62%. Still for that read-out and setting: to `COC(=O)CC1C(C)(C)C(OC(C)=O)C2CC3C4CC(=O)OC(c5ccoc5)[C@]4(C)CCC3[C@@]1(C)C2=O` (some centres undefined) belongs inactive: 0.992%; to `N#CC[C@H](Cc1ccccc1)N1CC[C@@H](O)CCC1=O`, inactive: -11.4%. For the compound `Cc1ccccc1-c1cc(N(C)C)ncn1`, the activation is inactive: -21.9%. The same measure, in the same setting: to `O=c1c(-c2ccc(Cl)cc2)nc2cnc(N3CCOCC3)nc2n1C1CC1` belongs inactive: -9.88%; to `CN(C)CC(C)(O)c1ccc2c(c1)CN(Cc1cn(C)c3ccccc13)CCO2` (centres undefined), inactive: 0.854%. Still for that read-out and setting: to `Nc1ccc(-c2nc3ccc(-c4nc5ccc(N)cc5[nH]4)cc3[nH]2)cc1` belongs inactive: -13.5%; to `O=C(c1csnn1)N1CCC[C@@]2(CCN(Cc3ccccc3)C2)C1`, inactive: -9.79%; to `COc1ncc2ncc(=O)n(CCc3ccccc3)c2n1`, inactive: -6.96%. Same read-out and setting: to `COC(=O)N1CCC2(CCCN(C(=O)Nc3ccccc3)C2)CC1` belongs inactive: 5.29%; to `Clc1ccccc1-c1nc(NC2CCNCC2)c2ccccc2n1`, inactive: -14.2%. Regarding `CCC(=O)c1ccc(O)cc1`, the activation was inactive: -10.5%. Same read-out and setting: the result for `C[C@]12CCC3c4ccc(OC(=O)c5ccccc5)cc4CCC3C1CCC2=O` (some centres undefined) reads inactive: -2.25%. On the same count and under the same terms, to `COC(=O)[C@@H]1CCCN1C(=O)c1c(OC)cc(=O)n2c1CCN(Cc1ccc3c(c1)CCO3)CC2` belongs inactive: -9.5%; to `CCNc1ncc2nc(C)c(=O)n(Cc3cccs3)c2n1`, inactive: -24.7%. `Oc1ccc(Cl)c2cccnc12`: the activation was inactive: -17.4% and inactive: -17.9%. `Cc1ncc2c(c1CNC(=O)c1cncs1)CCN(C(=O)c1ccc(C(C)(C)C)cc1)C2`: the activation was inactive: -24.2%. The same measure, in the same setting: the result for `CC1CN(Cc2cccn2-c2ncccn2)Cc2cc(Cl)ccc2O1` (centres undefined) reads inactive: -8.02%. The same measure, in the same setting: the result for `CN1CCc2ccccc2Cc2[nH]c3ccccc3c2CC1` reads inactive: -16.7% and inactive: -18.5%; that for `CC(O)(COc1ccccc1)c1ccc2c(c1)CN(Cc1ccc3nsnc3c1)CCO2` (centres undefined), inactive: 16.5%; that for `C#Cc1cccc(C(=O)NCc2nc(-c3ccccc3NC(C)=O)oc2C)c1`, inactive: -5.78%. Consider `O=C(c1ccccc1)[C@@H]1O[C@H]1c1ccc(-c2ccccc2)cc1`, for which the activation is inactive: -5.15%.

For `O.O.O.O.O.O.O.O=S(=O)([O-])[O-].[Co+2]`, the activation is inactive: -48.9%. For the compound `COCc1c(C(=O)N2CCN(c3ccccc3O)CC2)cnn1-c1nccc(-c2cccs2)n1`, the activation was inactive: -19.8%. The same measure, in the same setting: the result for `COC(=O)CC1C2(C)CC34OC5(C)O[C@@]6(C7/C(=C(/O)C(C)C)C(=O)OC(c8ccoc8)[C@]7(C)C(OC(C)=O)C(OC(C)=O)[C@]6(O5)[C@@]13C)C(OC(C)=O)[C@]4(O)C2OC(=O)C(C)C` (some centres undefined) reads inactive: -28.6%. Regarding `O=C(NC1CCCCC1)[C@@H]1CC=C[C@@H]2CCN(Cc3ccc(Cl)c(Cl)c3)C(=O)[C@@H]21`, the activation was inactive: -4.53%.

Regarding `CC(C)NC(=O)N1CCC2(CC1)CCN(C(=O)c1cccn1C)CC2`, the activation is inactive: -16.9%. `COc1ccc(C2c3[nH]c4ccccc4c3CC3C(=O)N(CCc4ccc(OC)c(OC)c4)CC(=O)N32)cc1` (centres undefined): the activation was inactive: -4.57%.
